Out of some 310,000 compounds screened, about 2,200 (0.71%) showed an effect of 50% or more. Effects have a minus sign here. Some of the results follow. Where a SMILES comes first, the peptide text is derived from it. The star is where a group is joined. Cbz = O=C(OCc1ccccc1)*
Molecular target: human ether-à-go-go-related gene (hERG) potassium channel (human, UniProt Q12809)
Test: primary screen, population patch clamp on CHO cells stably expressing hERG

Sequence of human ether-à-go-go-related gene (hERG) potassium channel (Q12809 whole entry, looked up): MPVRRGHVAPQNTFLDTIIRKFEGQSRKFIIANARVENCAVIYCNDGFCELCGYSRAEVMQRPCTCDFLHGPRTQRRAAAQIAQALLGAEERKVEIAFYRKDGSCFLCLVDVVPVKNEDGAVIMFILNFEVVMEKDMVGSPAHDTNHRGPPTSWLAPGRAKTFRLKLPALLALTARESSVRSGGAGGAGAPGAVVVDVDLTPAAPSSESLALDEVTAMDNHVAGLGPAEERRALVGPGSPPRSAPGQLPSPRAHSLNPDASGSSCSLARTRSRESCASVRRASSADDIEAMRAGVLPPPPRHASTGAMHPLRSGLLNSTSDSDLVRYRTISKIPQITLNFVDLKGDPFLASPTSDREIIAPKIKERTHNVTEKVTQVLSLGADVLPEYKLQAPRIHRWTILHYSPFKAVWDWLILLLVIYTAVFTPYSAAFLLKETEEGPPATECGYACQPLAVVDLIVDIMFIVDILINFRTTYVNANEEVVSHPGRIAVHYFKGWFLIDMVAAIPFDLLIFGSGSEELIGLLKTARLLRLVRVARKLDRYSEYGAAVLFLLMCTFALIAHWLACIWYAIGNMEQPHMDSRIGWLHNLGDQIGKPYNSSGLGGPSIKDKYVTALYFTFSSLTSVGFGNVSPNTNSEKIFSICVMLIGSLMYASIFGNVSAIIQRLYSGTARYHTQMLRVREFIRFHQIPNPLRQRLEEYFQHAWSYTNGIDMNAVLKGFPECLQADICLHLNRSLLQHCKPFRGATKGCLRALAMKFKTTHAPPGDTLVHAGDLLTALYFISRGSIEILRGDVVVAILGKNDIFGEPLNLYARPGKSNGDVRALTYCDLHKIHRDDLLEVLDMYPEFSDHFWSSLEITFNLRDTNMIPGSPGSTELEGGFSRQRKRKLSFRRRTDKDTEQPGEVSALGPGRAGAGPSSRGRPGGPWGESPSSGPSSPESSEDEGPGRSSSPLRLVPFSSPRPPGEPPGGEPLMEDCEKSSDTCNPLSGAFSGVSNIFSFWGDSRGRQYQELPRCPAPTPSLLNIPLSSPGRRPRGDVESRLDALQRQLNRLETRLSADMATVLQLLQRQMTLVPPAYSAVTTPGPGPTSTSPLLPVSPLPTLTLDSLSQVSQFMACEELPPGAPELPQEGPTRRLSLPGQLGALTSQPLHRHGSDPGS

In order of falling “hERG current change (%, negative = inhibition) at 1uM” value:
1. COCCOC1CCN(C(=O)C2CCC(=O)N(CCc3ccc(OC)cc3)C2)CC1 (centres unmarked)  45.2%
2. Cc1ccc(S(=O)(=O)/N=C2/NC(=O)/C(=C/c3ccc(Br)o3)S2)cc1  22.4%
3. Cc1ccc(F)cc1NC(=O)COC(=O)C1CCN(c2ccc(C(F)(F)F)cn2)CC1  21.6%
4. Cc1ccc(-c2nn(-c3ccccc3)cc2/C=N/O)cc1  20.2%
5. COc1ccc(CC2(CO)CCN(S(=O)(=O)c3c(C)nn(C)c3C)CC2)cc1  18.6%
6. C1CCCN(C2CCNCC2)CC1.Cl  18.4%
7. CN1CC(C(=O)Nc2ccc(F)c(Cl)c2)CC1=O (centres unmarked)  18.2%
8. O=C(Nc1cccc2c1CCCC2)c1ccccc1F  18.1%
9. O=C(Nc1nccs1)[C@@H]1CC=C[C@@H]2CCN(Cc3ccccc3)C(=O)[C@@H]21  17.9%
10. Oc1[nH]c2ccc(Br)cc2c1N=Nc1ccc(F)cc1  17.2%
11. CC(=O)Nc1ccc(S(=O)(=O)N(C)C2CCN(C)CC2)cc1  16.8%
12. Cc1c(C(c2ccccc2)c2c(C)n(C)n(-c3ccccc3)c2=O)c(=O)n(-c2ccccc2)n1C  16.7%
13. Cc1ccccc1C(=O)Nc1ccc(-c2nnc(SC(C)C(=O)O)n2C)cc1 (centres unmarked)  16.5%
14. COC(=O)c1ccc(OC(=O)/C=C/c2ccco2)cc1  15.9%
15. CCN(C1CCCCC1)S(=O)(=O)CCNC(=O)c1ccc2c(c1)OCO2  15.2%
16. CN1C(=O)C2(OCCCO2)c2ccccc21  15%
17. O=[N+]([O-])c1ccc(-c2cnc3ccccc3n2)cc1  14.8%
18. COc1ccc(S(=O)(=O)Nc2ncccc2C)c2ccccc12  14.6%
19. C[C@H](NC(=O)OCc1ccccc1)C(=O)N[C@@H](Cc1c[nH]c2ccccc12)C(=O)O (Cbz-Ala-Trp-OH)  14.3%
20. O=C(NNc1cccc(Cl)n1)Nc1ccc(F)cc1  14%
21. O=C(NC(=S)Nc1ccccc1N1CCOCC1)c1ccccc1F  13.9%
22. CCOC(=O)c1c(S(=O)(=O)NCC(=O)Nc2cc(C)ccc2OC)c(C)n(C)c1C  13.9%
23. COCC(=O)NC1CCN(S(=O)(=O)c2cccc(C(C)=O)c2)CC1  13.9%
24. Cc1ccc(C(C(=O)NCC2CCCO2)N(Cc2ccccc2F)C(=O)Cn2nnc(-c3cccs3)n2)cc1 (centres unmarked)  13.9%
25. CCOC(=O)CC1(CC(=O)OCC)NC(=O)c2c(C)sc(C(=O)OCC)c2N1  13.7%
26. COCCN1CCC(CNCc2cn[nH]c2-c2ccc(C)c(C)c2)C1 (centres unmarked)  13.5%
27. Cc1ccc(C)c(NS(=O)(=O)c2ccc(-c3cnc(C4CC4)o3)cc2)c1  13.2%
28. COC(=O)c1[nH]c2ccccc2c1Sc1ccccc1  12.7%
29. O=C(NCCN1CCOCC1)c1cccn2c(=O)c3c4c(sc3nc12)CCCC4  12.7%
30. CCOc1cc(C)c(S(=O)(=O)N2CCCCC2)cc1C  12.2%
31. COc1ccc(NC(=S)N/N=C/c2cccn2Cc2ccc(F)cc2)cc1  12%
32. Cc1ccc(S(=O)(=O)NCC(=O)N(CC(=O)NCC2CCCO2)c2cccc(F)c2)cc1 (centres unmarked)  11.9%
33. O=C(CCN1CCOCC1)Nc1cccc(Br)c1  11.9%
34. CCc1nn(C(C)C(=O)N(C)Cc2ccccc2)c(=O)c2cc3occc3n12 (centres unmarked)  10.9%
35. COc1cccc(C2CCN(CC(=O)Nc3cc(Cl)ccc3OC)CC2O)c1 (centres unmarked)  10.7%
36. CCOc1ccc(C(=O)Nc2ccc(S(=O)(=O)Nc3cc(C)on3)cc2)cc1  10.2%
37. O=C(NCCc1ccccc1)C1CCC(=O)N(CCCN2CCCC2=O)C1 (centres unmarked)  10.1%
38. Cc1cccc(NS(=O)(=O)c2ccc(C(C)(C)C)cc2)n1  9.31%
39. Cc1cccc(Cn2c(Sc3nc(C)cs3)nc3c2c(=O)[nH]c(=O)n3C)c1  9.26%
40. COc1ccc(CCN(C(=O)C(F)(F)F)C(C(=O)NC2CCCCC2)c2ccc(C)s2)cc1 (centres unmarked)  9.22%
41. Nc1cc(=O)[nH]c(SCC(=O)Nc2cccc([N+](=O)[O-])c2)n1  8.82%
42. CCC1(C)Cc2c(sc3nc(SC)n(Cc4ccccc4)c(=O)c23)CO1 (centres unmarked)  8.55%
43. Cc1ccnc(NC(=O)c2ccc(Cl)c(NC(=O)C(C)Oc3ccccc3)c2)c1 (centres unmarked)  7.95%
44. Cc1ccc(Cl)c(NC(=O)CN2CCN(C=O)CC2)c1  7.72%
45. Cc1c(Cl)cnc(NC(=O)CSc2nncs2)c1Cl  7.35%
46. COc1cc([C@@H]2CC=C(C(=O)O)[C@H](c3ccc(F)cc3)N2S(=O)(=O)c2ccc(C)cc2)cc(OC)c1OC  7.14%
47. CC(C)c1ccc(N(CC(=O)N2CCN(Cc3ccccc3)CC2)S(C)(=O)=O)cc1  7.12%
48. Cc1ccc(-c2nc(SCC(=O)NCC3CCCO3)c(-c3ccccc3)[nH]2)cc1 (centres unmarked)  6.98%
49. CCOC(=O)c1ccc2c(c1)[n+](CC)c(C)n2-c1ccccc1.[I-]  6.88%
50. Cn1c(SCC(=O)NC2CC2)nnc1-c1ccccc1  6.86%
51. CC(=O)Nc1ccc(S(=O)(=O)N2CCSC2c2ccccc2Cl)cc1 (centres unmarked)  6.81%
52. CS(=O)(=O)N1CCC(C(=O)c2cccc(Cl)c2)CC1  6.61%
53. O=C(COc1ccc(Br)cc1Br)NC(=S)N1CCCc2ccccc21  6.53%
54. CC(=O)Nc1ccc(NC(=O)c2ccc(C)c(S(=O)(=O)Nc3cccc(C)c3)c2)cc1  6.13%
55. O=C(O)c1cccc(NC(=O)c2ccc3c(c2)C(=O)N(C2CCCCC2)C3=O)c1  5.48%
56. CC1CC(C)CN(C(=O)Cn2nnc(-c3ccccc3)n2)C1 (centres unmarked)  5.09%
57. CCOc1ccccc1N1CCN(C(=O)CN2C(=O)NC3(CCCC3)C2=O)CC1  5.03%
58. COc1cccc(-c2ncc3ccccn23)c1.O=C(O)C(=O)O  4.02%
59. O=C1CC(=O)N(c2ccccc2)N1c1ccccc1  3.73%
60. COc1ccc(NC(=O)CN(C)C(=O)CC2CCCCC2)cc1  3.61%
61. CC(C)CC(=O)N1CCN(c2ccc([N+](=O)[O-])c(NCc3ccccc3)c2)CC1  3.51%
62. CCOc1ccc(/C=N/NC(=O)c2ccc(Cn3cc(Br)cn3)o2)cc1  3.2%
63. CCn1c(=O)n(CC)c2cc(S(=O)(=O)Nc3c(C)cccc3C)ccc21  3.07%
64. CC(=O)c1c(C)[nH]c(C(=O)N(CCc2ccccc2)Cc2ccccc2)c1C  2.22%
65. COc1ccc(C(=O)CSc2nnc(-c3cccnc3)n2Cc2ccco2)cc1  1.92%
66. Cc1ncoc1C(=O)N1CCCC(C(=O)c2ccc(C(F)(F)F)cc2)C1 (centres unmarked)  1.65%
67. COc1cccc(C(=O)N2CCn3c2nc2ccccc23)c1  1.36%
68. O=C1c2oc3ccccc3c(=O)c2C(c2cccnc2)N1Cc1ccco1 (centres unmarked)  1.1%
69. O=C(NCc1cccc(F)c1)C1CCN(C(=O)c2sccc2-n2cccc2)CC1  0.676%
70. CN(C)c1cccc2c1C(=O)c1ccccc1C2=O  -0.24%
71. CC1CCc2nc(NC(=O)CN3CCOCC3)sc2C1 (centres unmarked)  -0.437%
72. Fc1cccc(F)c1/C=N/NC(=S)Nc1cccnc1  -1.15%
73. COc1ccc2nc(Nc3nc(C)c(CCC(C)C)c(=O)[nH]3)nc(C)c2c1  -1.85%
74. O=C(c1ccc(CS(=O)(=O)c2ccc(Br)cc2)o1)N1CCCCCC1  -2.04%
75. Cc1c(C(=O)N2CCOCC2)sc(NC(=O)Cc2ccccc2)c1C#N  -2.64%
76. COc1ccc(CC(=O)Nc2ccc(S(=O)(=O)Nc3cc(C)on3)cc2)cc1  -5.27%
77. Cc1nc(N)sc1-c1nnc(SCC(=O)Nc2nccs2)n1C  -5.29%
78. CCOC(=O)N1CCN(C(=O)c2cccn3c(=O)c4sccc4nc23)CC1  -9.35%
79. COc1ncnc2c1oc1nc(CC(C)C)c3c(c12)CC(C)(C)OC3  -10.6%
80. COc1cc(C(CCN2CCCCC2)c2c(OC)cc(OC)c3c(-c4ccccc4)cc(=O)oc23)cc(OC)c1OC (centres unmarked)  -12%
81. CC(=O)Nc1cccc(C(=O)OCc2ccc([N+](=O)[O-])cc2)c1  -13.5%
82. O=C(CN1CCN(c2ccccc2)CC1)N1CCN(c2ccccc2)CC1  -14.1%
83. CSc1ccc(CN2CCC(n3nccc3NC(=O)C3CCOC3)CC2)cc1 (centres unmarked)  -22.8%
84. COc1cccc(-c2noc(C3CCCN(C(=O)c4ccc(F)cc4F)C3)n2)c1 (centres unmarked)  -24.5%
85. Cc1cc(C)c2sc(N(CCCN(C)C)C(=O)c3ccc(S(=O)(=O)N(C)C4CCCCC4)cc3)nc2c1.Cl  -32.9%
86. OC1(c2cccs2)CN(c2ccc(Br)cc2)C2=[N+]1CCCS2.[Br-] (centres unmarked)  -39.5%

Source: publication PMC4336329 (PLoS ONE, 2015)
